Results published in the supplement of paper PMC11417369.
± gives the standard deviation of the averaged measurements. Some of the results follow.

Tested on: PfAP2-EXP AP2 domain (GST-tagged)
Assay: gcPBM binding intensity (ln(normalized median fluorescence intensity)); higher = stronger DNA binding
In short: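 DNA-binding domains from P. falciparum, fused to GST and produced in E. coli, were put on an Agilent 4 × 180k double-stranded probe array for 1 h in 1× PBS holding 1% milk, 0.2 mg/ml BSA, 0.5% salmon testes DNA and 0.03% Triton X-100. Probes were primer-extended, 36 bp long and drawn from intergenic genomic regions, with negative controls included. After Alexa488 anti-GST antibody detection and a 488 nm scan, binding intensity was set as the highest Masliner-normalised natural-log median intensity across replicate spots of either probe orientation.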

Sequence | gcPBM binding intensity (ln)
ATATTAATAATATATACACACATAAGTATTGTATAT [CACACA_site4095] | 8.2 ± 0.26
AATGATGTCATAGGGGGTACACATAAATGTGAATGT [XGTACX_site6745] | 9.31 ± 0.33
GCAACATTCTAAGACACACACACACCCATATATATA [CACACA_site1053] | 8.77 ± 0.42
AATAATATATATATATATATATATAGATATGTATAT [GTGCAC_negctrl_site653] | 8.37 ± 0.23
ATGTTAACTAAATGTACACACCTATGTTGATGTAAC [CACACA_site5073] | 8.53 ± 0.33
AAAGTTTAAATGAGAAGTACAAATTTTTGTTTTTAT [XGTACX_site1844] | 8.41 ± 0.53
TATATATATAAAATATGTACATAAAATTATTTATTT [XGTACX_site7666] | 8.61 ± 0.26
ATATAAAGTATGTTAGTGCACTTTTTTTTTTTTTTT [GTGCAC_site9419] | 9.02 ± 0.16
TCATAGGAGAACTTTTGTACAGATTTTTCTTTTTTT [XGTACX_site2853] | 8.22 ± 0.4
GTAATACACATATAATGTACTCATAAATATATTTAT [XGTACX_site4041] | 8.69 ± 0.17
ACATACATACCCCCACGTACGTACCGAAACACCACC [XGTACX_site1982] | 9.95 ± 0.38
TTTCTATATCTTTCAACACACAAATTTTTTTTTCCA [CACACA_site108] | 8.56 ± 0.46
AATATAAGTGTACATACACACTTTACAATATCATAT [CACACA_site5634] | 8.5 ± 0.34
AATTTTATATATATATGTACATATTTATATGCTTAT [XGTACX_site8180] | 8.6 ± 0.35
CAAAGAACTTATAGGGTGCTTTACTTATAAGTAAAT [GTGCAC_site9579] | 8.51 ± 0.28
GTGGTTGTAATGGTGGTGCATATTGTATATTATGTT | 9.26
ATTATTTTATATACATGTACATATTATATATAAAAG [XGTACX_site2735] | 8.55 ± 0.39
TATAAAATAAAAAATATATATATGTATATATATATA [TGCATGCA_negctrl_site163] | 9.86 ± 0.16
TATAAGTGCTCAACGGTGCATTTATAGAAGTTAAAC | 9.07 ± 0.27
TTAGATATTAATATATGTACATATTAATATATTTAC [XGTACX_site7119] | 8.26 ± 0.4
TATTTATACACGCACACACACTTATACATTTATATA [CACACA_site7543] | 8.96 ± 0.42
TTTCTTTTTTAGAGGTGTACACGTAGGCCTCTTGGA [XGTACX_site4760] | 8.75 ± 0.31
CACACTTTTTAAATTAACGCATTTCAAAAAAAATAT [CACACA_negctrl_site84] | 8.35 ± 0.33

Sequence | gcPBM binding intensity (ln)
TAAATGTAAAACGAAATGCACACTATGGAAAATATA [CACACA_site724] | 9.11 ± 0.41
TATAATTTTTACTGGGTGCACTCGATATTTTAAATA | 9.64 ± 0.98
TATCCATATTTGTTCACACACACACGGATTTATATA [CACACA_site7649] | 8.78 ± 0.52
TTATTTCTAATTCGTTGTACAATATATAATATATAT [XGTACX_site5861] | 8.81 ± 0.42
ATTATTATTTTACGTAGTACATATAATAAATATTTA [XGTACX_site8934] | 8.27 ± 0.43
GGAATATTATTTCAATGTACATTTTGAGATTAGAAT [XGTACX_site8187] | 8.87 ± 0.74
TTGATAGACACATGCACACATGCAATACTTTATTCA [CACACA_site3000] | 8.79 ± 0.099
TAGGTGTTAAAAAATACACACACAAAAAAAAAAAAA [CACACA_site7927] | 8.32 ± 0.53
CCTTTAAGCAAAAACACACACACATATATATATATA [CACACA_site348] | 10.1 ± 0.5
ACATTTTTGGTTTTAGTGCAATATGAATTATTTTAT | 8.635 ± 0.049
TCTTCCATTTTTATTACACACATAAATATGAAATCG [CACACA_site3471] | 8.74 ± 0.51
AGTTTTATATTTCTGAGTACTTATGAATCTAGCTCG [XGTACX_site4330] | 8.62 ± 0.4
ATTTTTTCTAAAAGTTGTACATTAAAACGTGTTCAC [XGTACX_site4803] | 8.45 ± 0.33
TTGTAAAAAATTCATACACACGTCTTATTTTTAAGA [CACACA_site8390] | 8.25 ± 0.37
TTTTTTTTTTTTTTTACACACATTTTAATAATTTTA [CACACA_site1492] | 8.2 ± 0.44
TTTATATAATATGAATGTACTTATATATTTATAGAC [XGTACX_site3261] | 8.49 ± 0.13
AAGACTCTTTGTCCTTGTACATATATTTTTATGTTT [XGTACX_site3711] | 8.55 ± 0.42
TATTTATTCTCCAACACACACACATATATATATATA [CACACA_site2894] | 10.1 ± 0.43
TTATAGGTGCTTCGTAGTACATAAAAATAATATATA [XGTACX_site6979] | 8.54 ± 0.33
AAAATGAATTTAAAATGTACTTTTTCTAAAGAGTAA [XGTACX_site2337] | 8.07 ± 0.34
AAAAATAAAAGGTGTGCACACAAAAATATATATATA [CACACA_site8507] | 9.74
TATTGTTATTAAAAATGTACATATAAATTTCTTATT [XGTACX_site1409] | 8.32 ± 0.33
